# Measurements reported in PMC7819943, “Rice protein-binding microarrays: a tool to detect cis-acting elements near promoter regions in rice”.
# The other results are listed elsewhere or left out.
# Molecular target: T1, OsWOX13 (Oryza sativa, UniProt Q5QMM3 1-267)
# T1 sequence: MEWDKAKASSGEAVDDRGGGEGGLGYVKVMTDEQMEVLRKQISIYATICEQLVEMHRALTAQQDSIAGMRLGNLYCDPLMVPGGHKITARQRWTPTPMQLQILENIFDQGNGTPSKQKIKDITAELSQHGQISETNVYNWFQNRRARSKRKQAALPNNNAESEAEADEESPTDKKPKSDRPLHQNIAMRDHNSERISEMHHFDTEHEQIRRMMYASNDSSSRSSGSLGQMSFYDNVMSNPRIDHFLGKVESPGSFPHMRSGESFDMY
# Test: protein-binding microarray (RPBM); PBS, 2% BSA, 51.3 ng/ul salmon testes DNA, 50 uM zinc acetate, 200 nM TF, 25 C, 1 h; high values mean tight binding
# Conditions: protein: recombinant; tags: N-terminal polyhistidine and DsRed monomer fusion (pET32a); label: CyDye5-dUTP incorporated in the synthesized complementary strand; 3' TTTTT single-stranded linker to array surface; dsDNA, one strand shown
# Outline: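 Transcription factors were made in E. coli BL21-CodonPlus as N-terminal fusions to a polyhistidine tag and DsRed, then purified on Ni–NTA. After primer extension with Cy5-dUTP and blocking with 2% BSA, a custom Agilent array was exposed for 1 h at 25 °C to 200 nM protein in PBS, 2% BSA, salmon testes DNA and 50 µM zinc acetate. Washed arrays were scanned on an Axon 4000B, and the binding signal is per-feature fluorescence intensity in arbitrary units.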
row,Sequence,binding signal
1,TATGAATTGGCTATTAAATTGACTATAAATGATTTAGAGCCGGAGTCACCTAGTGCAG,37200 fluorescence intensity (a.u.)
2,CAGACGCATCAATCAACAAAATAAATAAATAAATAAACAACGGAGTCACCTAGTGCAG,21800 fluorescence intensity (a.u.)
3,ATTTAATTTTACATGTTAATAAAGTGATATATTATATATTCGGAGTCACCTAGTGCAG,5830 fluorescence intensity (a.u.)
4,ATTTGATAATTTAACACTCCTTAAAACATGTTTCCATTATCGGAGTCACCTAGTGCAG,10700 fluorescence intensity (a.u.)
5,ATTAACTATTAAAGATGATCATATAAATTAAGAAGCATAGCGGAGTCACCTAGTGCAG,8220 fluorescence intensity (a.u.)
6,CCTGGCTGATCGATAATTAATCCGTCCTCGCCGTCGCCATCGGAGTCACCTAGTGCAG,15400 fluorescence intensity (a.u.)
7,TATGATTGCAGGTCATTGCTGACCGTGGAATCGAGCTGTTCGGAGTCACCTAGTGCAG,35400 fluorescence intensity (a.u.)
8,TTTAAATGACTGAAAATTTCGCGGTCGAATCAGCGAGATGCGGAGTCACCTAGTGCAG,19400 fluorescence intensity (a.u.)
9,GGAAATTTCGTGCCTGTCATTGTGTAATGGACTCAAGTACCGGAGTCACCTAGTGCAG,9410 fluorescence intensity (a.u.)
10,GTGTTTTGAGTAATTGAGATGATCGTGAAATGTAGTGCTTCGGAGTCACCTAGTGCAG,11900 fluorescence intensity (a.u.)
11,GGTTTATTCAATTATGAAATTTTACTCCCCTATGTACTAACGGAGTCACCTAGTGCAG,11100 fluorescence intensity (a.u.)
12,GCTGCCTAATTTTGTCCGAGATGTGCCCATCAAATCCAACCGGAGTCACCTAGTGCAG,3880 fluorescence intensity (a.u.)
13,CGTAATTAAGTCCATGCACGCAACCTAATCATGTTCAACACGGAGTCACCTAGTGCAG,9810 fluorescence intensity (a.u.)
14,ACCATTCATTTCTATCTATTTTCTTAATAACTGTGTCTAACGGAGTCACCTAGTGCAG,4070 fluorescence intensity (a.u.)
15,TATTTGATAGAGTATATACGTAATACAGTAATATGATGAGCGGAGTCACCTAGTGCAG,10100 fluorescence intensity (a.u.)
16,TGCACTGGATTAGCTAAAAGATTGCGACATCAACCACAGCCGGAGTCACCTAGTGCAG,4440 fluorescence intensity (a.u.)
17,ATGATTGTTGGAGCAAGGCCCAGCCCAAGGTAGCGTACATCGGAGTCACCTAGTGCAG,13400 fluorescence intensity (a.u.)
18,CTAAATTTCCTCCAAAATCCACATGTAATGTGCCATTCCACGGAGTCACCTAGTGCAG,3650 fluorescence intensity (a.u.)
19,AGACAAATAGGCAATGCATTAATTGTACATGGATAGGATGCGGAGTCACCTAGTGCAG,4280 fluorescence intensity (a.u.)
20,TATAATTTATTTTGTTATTAATTTATATTTAATACTTGTGCGGAGTCACCTAGTGCAG,42100 fluorescence intensity (a.u.)
21,TCTTCACCCATTAATGAGGGATTGACATGGCTGTCCCTCGCGGAGTCACCTAGTGCAG,11100 fluorescence intensity (a.u.)

row,Sequence,binding signal
1,CTAGATTATTGAGTCAGATTACTATAAGCTAGATTGTTATCGGAGTCACCTAGTGCAG,17400 fluorescence intensity (a.u.)
2,TTTGAATTTAAATTCAAATTTGAATTGGATATATAAACTTCGGAGTCACCTAGTGCAG,6240 fluorescence intensity (a.u.)
3,AATTAAAATGACTGGGCTGCTGCATTACAATCTACAAGTCCGGAGTCACCTAGTGCAG,4150 fluorescence intensity (a.u.)
4,ATAAATTATCTTTGAATTTTGAGCATATCTTCATTTCGAACGGAGTCACCTAGTGCAG,17500 fluorescence intensity (a.u.)
5,TTTTGATTTTGTAGTAGTGTGCTATAAGTACATGTGTCTACGGAGTCACCTAGTGCAG,3730 fluorescence intensity (a.u.)
6,GCAAAGGCATGATTGATGTATACCTTATGACTTCCTAATTCGGAGTCACCTAGTGCAG,18800 fluorescence intensity (a.u.)
7,CGCGTTTTAATTTGCATGTTTCCATATTGTAAGAATTTAACGGAGTCACCTAGTGCAG,3780 fluorescence intensity (a.u.)
8,GGAAATTGGGTAAAATTTTCAATCTAACTCACCAAACCCACGGAGTCACCTAGTGCAG,31000 fluorescence intensity (a.u.)
9,TATGGTTAATTATGTATTTATCGACAACGGGATGTTCGTACGGAGTCACCTAGTGCAG,15000 fluorescence intensity (a.u.)
10,ATGATTTGATTTTGCAGTTAGCAATGTTGTATTCAAAATGCGGAGTCACCTAGTGCAG,30700 fluorescence intensity (a.u.)
11,CGTGTGAACTAATTACTTCAGTTACCATAAATATCCTGCACGGAGTCACCTAGTGCAG,6760 fluorescence intensity (a.u.)
12,TGAGGGATAATTATCCCTTGATGTTATTGGTCGGAGTACCCGGAGTCACCTAGTGCAG,18000 fluorescence intensity (a.u.)
13,TTATGAATAATCAGCATGTGTAATTAGTTAGTTCTATGCACGGAGTCACCTAGTGCAG,12400 fluorescence intensity (a.u.)
14,GCCTTGATTAAGAGAGTAATGCAGCTATGGCAATACTGCCCGGAGTCACCTAGTGCAG,19600 fluorescence intensity (a.u.)
15,AATCCCATCTAATTAAATTAAACGGTTGATATTATTGTTTCGGAGTCACCTAGTGCAG,9480 fluorescence intensity (a.u.)
16,CTCCATGATTTGACAATGTGGTGCTACAGTAAATATTTGCCGGAGTCACCTAGTGCAG,18300 fluorescence intensity (a.u.)
17,TTTGCTGTCAAATTTTGGTAACTATATAAGAAATCCTGCCCGGAGTCACCTAGTGCAG,3280 fluorescence intensity (a.u.)
18,ATTAAAGAGGATTGAAAGAGATTGAGGGAGAATAATTTCACGGAGTCACCTAGTGCAG,8540 fluorescence intensity (a.u.)
19,GAATGATTGGGGTTACGTGATGACAGTATGTGGTACTCGACGGAGTCACCTAGTGCAG,48500 fluorescence intensity (a.u.)
20,GGATTTAATTTACACTGTAGACAAAACATAAGGCCTTTTGCGGAGTCACCTAGTGCAG,19200 fluorescence intensity (a.u.)
21,CTAAGCTAATTGTCAGCTCAGTAGTCGGAGCGGGTGGACCCGGAGTCACCTAGTGCAG,3680 fluorescence intensity (a.u.)
